Here are results for 115 sequences from the BET-seq Pho4 binding data (Le et al. 2018).

The list shows a part of the results. These are noisy estimates, calculated here from bound and input reads.

The target of the experiment is T1, Pho4 (S. cerevisiae) (UniProt P07270).
T1 sequence: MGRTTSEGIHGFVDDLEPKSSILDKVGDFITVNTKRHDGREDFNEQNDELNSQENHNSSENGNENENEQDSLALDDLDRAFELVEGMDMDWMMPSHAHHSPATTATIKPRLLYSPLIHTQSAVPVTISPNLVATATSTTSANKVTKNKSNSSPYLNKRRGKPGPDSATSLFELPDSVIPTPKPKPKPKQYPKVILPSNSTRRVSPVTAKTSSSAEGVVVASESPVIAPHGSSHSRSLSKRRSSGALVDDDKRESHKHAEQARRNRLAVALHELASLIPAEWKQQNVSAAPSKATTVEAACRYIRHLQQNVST
The experiment is described as follows: relative binding free energy (BET-seq); higher = weaker binding. The following applies: reference: library average.
For TATGTCACGTGCCTGT, the “relative binding free energy” value amounted to 0.06 kcal/mol. TTATTCACGTGTCAAT: the “relative binding free energy” value was found to be 0.18 kcal/mol. The figure for TTATTCACGTGCGTGA is 0.3 kcal/mol; for CCCGGCACGTGGGGTG it is -0.26 kcal/mol. The value for TGGTGCACGTGATCTT was 0.02 kcal/mol. Regarding TGTGGCACGTGAGCAG, the “relative binding free energy” value was determined as 0.1 kcal/mol. Regarding TTGGGCACGTGTCGTG, the “relative binding free energy” value amounted to 0.01 kcal/mol. As to GGGCGCACGTGAAGTG, the “relative binding free energy” value is 0.28 kcal/mol. Take TGATTCACGTGGTGCT: the “relative binding free energy” value was determined as 0.25 kcal/mol. On to TCTAGCACGTGGGATG, for which the “relative binding free energy” value was -0.11 kcal/mol. With TGGATCACGTGGAGGC, the “relative binding free energy” value worked out at 0.17 kcal/mol. As for TCGGGCACGTGGGCTG, the “relative binding free energy” value was -0.23 kcal/mol. Regarding TTTGACACGTGGAAAG, the “relative binding free energy” value is 0.15 kcal/mol. With TTGGGCACGTGTGCCG, the “relative binding free energy” value is -0.11 kcal/mol. The figure for AGAAGCACGTGAGTTT is 0.1 kcal/mol; for TTTCGCACGTGAACGT it is 0.23 kcal/mol; for GTGGCCACGTGTTGAT it is 0.03 kcal/mol.

With ATTAGCACGTGCGGCG, the “relative binding free energy” value was -0.11 kcal/mol. The figure for GATAGCACGTGTTCGT is -0.08 kcal/mol. In the case of TTAGACACGTGTGGAG, the “relative binding free energy” value was found to be 0.07 kcal/mol.

Regarding CGTAACACGTGGTGGA, the “relative binding free energy” value was determined as 0.04 kcal/mol. For the sequence GAGATCACGTGGTGGC, the “relative binding free energy” value was 0.18 kcal/mol.

Take TAAGGCACGTGACGTT: the “relative binding free energy” value was found to be 0.07 kcal/mol. Consider GGTAACACGTGCCGGG, for which the “relative binding free energy” value is -0.07 kcal/mol. In the case of TCTAGCACGTGCGGTG, the “relative binding free energy” value is -0.16 kcal/mol. Regarding GGTAGCACGTGGTATA, the “relative binding free energy” value is -0.15 kcal/mol.

With AAAGGCACGTGGGGGT, the “relative binding free energy” value was -0.2 kcal/mol. Consider CTCGGCACGTGGAGCG, for which the “relative binding free energy” value turned out to be 0.04 kcal/mol.

For TACTGCACGTGTGGTT, the “relative binding free energy” value is -0.05 kcal/mol. Regarding TCGGTCACGTGATGGT, the “relative binding free energy” value amounted to 0.24 kcal/mol.

For ATATTCACGTGGAGCG, the “relative binding free energy” value is 0.13 kcal/mol.

Regarding TTCAGCACGTGGTTAG, the “relative binding free energy” value is -0.11 kcal/mol. With AGTGGCACGTGGTCAA, the “relative binding free energy” value is -0.26 kcal/mol.

Consider TCAGGCACGTGGGAGT, for which the “relative binding free energy” value is -0.12 kcal/mol. Regarding GGCTACACGTGGTTTG, the “relative binding free energy” value stood at 0 kcal/mol.

For the sequence AGTGCCACGTGATATG, the “relative binding free energy” value is 0.05 kcal/mol. The value for TTAGTCACGTGCGTTG was 0.05 kcal/mol. ATTGTCACGTGGTCTT: the “relative binding free energy” value was -0.04 kcal/mol. ATGTGCACGTGGCTAG: the “relative binding free energy” value was -0.2 kcal/mol. Turning to TTAGCCACGTGGGTTA, the “relative binding free energy” value was -0.31 kcal/mol. For TGCGTCACGTGAAGAG, the “relative binding free energy” value was 0.34 kcal/mol. With GTAATCACGTGTGGTG, the “relative binding free energy” value worked out at 0.21 kcal/mol. The value for ACTTTCACGTGTTTTA was 0.21 kcal/mol; that for AAATGCACGTGGGTTC was -0.13 kcal/mol; that for TTCATCACGTGTGTCT was 0.13 kcal/mol. For the sequence ATGTACACGTGTATGG, the “relative binding free energy” value is 0.06 kcal/mol. As for TTAAACACGTGGTGTT, the “relative binding free energy” value is -0.1 kcal/mol. Turning to GGCTACACGTGGGGTG, the “relative binding free energy” value was 0.05 kcal/mol. The figure for TGGCACACGTGTTTGA is 0.12 kcal/mol. The value for GTTAGCACGTGTTATA was 0.06 kcal/mol; that for GCTTGCACGTGGTTAG was -0.04 kcal/mol.

As to GTAGGCACGTGAAGTA, the “relative binding free energy” value is 0.13 kcal/mol. Consider TAAGTCACGTGCAAGT, for which the “relative binding free energy” value was found to be 0.26 kcal/mol.

As for TAAATCACGTGGAATG, the “relative binding free energy” value stood at 0.16 kcal/mol. Turning to GTTTTCACGTGGGCTG, the “relative binding free energy” value turned out to be 0.12 kcal/mol. Turning to TCATTCACGTGTAGTA, the “relative binding free energy” value came out at 0.19 kcal/mol. Regarding AGGAGCACGTGGGTCC, the “relative binding free energy” value was -0.18 kcal/mol.

On to TGGCTCACGTGTGGAG, for which the “relative binding free energy” value was found to be 0.24 kcal/mol. With TCGAGCACGTGGGTAG, the “relative binding free energy” value was -0.25 kcal/mol. Turning to TGCTACACGTGTGTTT, the “relative binding free energy” value stood at 0.13 kcal/mol. Regarding GTGTACACGTGTGTAT, the “relative binding free energy” value stood at 0.02 kcal/mol. As for CGTAACACGTGTTGTA, the “relative binding free energy” value was -0.14 kcal/mol. TAGTTCACGTGCGTGC: the “relative binding free energy” value came to 0.12 kcal/mol. Turning to AAAATCACGTGATGGT, the “relative binding free energy” value turned out to be 0.23 kcal/mol.

Consider TGTTCCACGTGGATTG, for which the “relative binding free energy” value was 0.04 kcal/mol.

With TAAGACACGTGAGGTG, the “relative binding free energy” value is 0.22 kcal/mol. Regarding TTGGGCACGTGGAGAG, the “relative binding free energy” value came out at 0.01 kcal/mol. Take ATCATCACGTGGTGAT: the “relative binding free energy” value came out at 0.19 kcal/mol. The value for GGCGTCACGTGTGACG was 0.39 kcal/mol.

Consider CGTGGCACGTGTTGCT, for which the “relative binding free energy” value was -0.01 kcal/mol.

GCTTGCACGTGTGCGT: the “relative binding free energy” value amounted to 0.02 kcal/mol.

Turning to TCTGGCACGTGTGTGA, the “relative binding free energy” value was -0.1 kcal/mol. For the sequence CTATTCACGTGATGGT, the “relative binding free energy” value was 0.35 kcal/mol. The value for AGTCGCACGTGGTTTG was -0.04 kcal/mol; that for GAGGGCACGTGCTGGA was -0.11 kcal/mol.

In the case of TCGGGCACGTGGCTTG, the “relative binding free energy” value was -0.04 kcal/mol.

Turning to TTAGGCACGTGCCTGG, the “relative binding free energy” value was -0.22 kcal/mol.

For the sequence GTAGTCACGTGTCATG, the “relative binding free energy” value came out at 0.14 kcal/mol. As to CGCAGCACGTGTGGGG, the “relative binding free energy” value is -0.07 kcal/mol. TGATTCACGTGGCGTA: the “relative binding free energy” value was found to be 0.14 kcal/mol. Take CATTGCACGTGCGTGT: the “relative binding free energy” value was -0.11 kcal/mol. For GTATGCACGTGGTGAT, the “relative binding free energy” value was -0.02 kcal/mol. TGGCACACGTGGAGAG: the “relative binding free energy” value turned out to be 0.1 kcal/mol. For TGCACCACGTGGTGGG, the “relative binding free energy” value is -0.17 kcal/mol.

For the sequence CGCGTCACGTGGTAGG, the “relative binding free energy” value is 0.04 kcal/mol. GGTTTCACGTGGGCTC: the “relative binding free energy” value worked out at 0.26 kcal/mol. The value for TGTAGCACGTGTTTCG was -0.12 kcal/mol; that for GTTGACACGTGATGTG was 0.23 kcal/mol; that for ATCTACACGTGAGTGT was 0.14 kcal/mol. The figure for TGCAGCACGTGGTAGG is -0.17 kcal/mol; for AAATTCACGTGTGGTT it is 0.31 kcal/mol. Take GTATTCACGTGAATTG: the “relative binding free energy” value worked out at 0.38 kcal/mol.

As for ATATACACGTGTTGGA, the “relative binding free energy” value came out at 0.03 kcal/mol. As for GTGCCCACGTGGTTGT, the “relative binding free energy” value is -0.15 kcal/mol. Turning to TATCTCACGTGGTGTT, the “relative binding free energy” value was determined as 0.13 kcal/mol. Turning to TGGTACACGTGATTAA, the “relative binding free energy” value is 0.26 kcal/mol. Regarding ATTGTCACGTGGGGGC, the “relative binding free energy” value amounted to 0.01 kcal/mol. In the case of TTGTCCACGTGAGCGT, the “relative binding free energy” value came out at 0.2 kcal/mol. Regarding TGTATCACGTGGGTCC, the “relative binding free energy” value was 0.17 kcal/mol.

For the sequence TTGGGCACGTGTTATC, the “relative binding free energy” value worked out at 0.03 kcal/mol. For AGGAGCACGTGCGTGG, the “relative binding free energy” value was -0.11 kcal/mol. As for GGATTCACGTGATAAA, the “relative binding free energy” value amounted to 0.64 kcal/mol.

With GGAGTCACGTGGCGGT, the “relative binding free energy” value is 0.05 kcal/mol. As to TAGGTCACGTGGACTT, the “relative binding free energy” value came to 0.07 kcal/mol. Consider CGAAGCACGTGCTGGG, for which the “relative binding free energy” value is -0.11 kcal/mol. The figure for AGTAGCACGTGTGATG is -0.02 kcal/mol. In the case of GGAGGCACGTGGTTTG, the “relative binding free energy” value was -0.03 kcal/mol. For the sequence ATCTGCACGTGGTTAT, the “relative binding free energy” value is -0.04 kcal/mol. The figure for GTAGGCACGTGTTCTT is -0.11 kcal/mol. Consider TCAGGCACGTGTGATA, for which the “relative binding free energy” value is 0.11 kcal/mol. Take CAGGTCACGTGTATGG: the “relative binding free energy” value stood at 0.09 kcal/mol. For GTCGGCACGTGATTAG, the “relative binding free energy” value is 0.04 kcal/mol. For ATAAGCACGTGATGGC, the “relative binding free energy” value was determined as 0.1 kcal/mol.

For the sequence TTGGTCACGTGGAAAG, the “relative binding free energy” value was found to be 0.17 kcal/mol.

In the case of GGAAGCACGTGAGAGG, the “relative binding free energy” value is 0.08 kcal/mol.
